Laboratory results: PubChem BioAssay AID488969 (Vanderbilt High Throughput Screening Facility, 2010)
In all, about 110,000 compounds were measured (“z-score”: median about -0.1, highest 2% from about 2 on). Some of the results follow.

Target: Metabotropic glutamate receptor 8 (Rattus norvegicus) (UniProt P70579)
Experiment: rat mGluR8 modulators via GIRK flux, primary screen, cell-based, thallium flux, HTS (AID 488969)
Details: HEK293 rat mGluR8, GIRK (G protein-gated inwardly rectifying potassium channel) thallium flux, FluoZin2; at 10 µM; stronger effect = higher value; submaximal glutamate (EC20) added with thallium

UniProt P70579, sequence (P70579 whole entry, looked up): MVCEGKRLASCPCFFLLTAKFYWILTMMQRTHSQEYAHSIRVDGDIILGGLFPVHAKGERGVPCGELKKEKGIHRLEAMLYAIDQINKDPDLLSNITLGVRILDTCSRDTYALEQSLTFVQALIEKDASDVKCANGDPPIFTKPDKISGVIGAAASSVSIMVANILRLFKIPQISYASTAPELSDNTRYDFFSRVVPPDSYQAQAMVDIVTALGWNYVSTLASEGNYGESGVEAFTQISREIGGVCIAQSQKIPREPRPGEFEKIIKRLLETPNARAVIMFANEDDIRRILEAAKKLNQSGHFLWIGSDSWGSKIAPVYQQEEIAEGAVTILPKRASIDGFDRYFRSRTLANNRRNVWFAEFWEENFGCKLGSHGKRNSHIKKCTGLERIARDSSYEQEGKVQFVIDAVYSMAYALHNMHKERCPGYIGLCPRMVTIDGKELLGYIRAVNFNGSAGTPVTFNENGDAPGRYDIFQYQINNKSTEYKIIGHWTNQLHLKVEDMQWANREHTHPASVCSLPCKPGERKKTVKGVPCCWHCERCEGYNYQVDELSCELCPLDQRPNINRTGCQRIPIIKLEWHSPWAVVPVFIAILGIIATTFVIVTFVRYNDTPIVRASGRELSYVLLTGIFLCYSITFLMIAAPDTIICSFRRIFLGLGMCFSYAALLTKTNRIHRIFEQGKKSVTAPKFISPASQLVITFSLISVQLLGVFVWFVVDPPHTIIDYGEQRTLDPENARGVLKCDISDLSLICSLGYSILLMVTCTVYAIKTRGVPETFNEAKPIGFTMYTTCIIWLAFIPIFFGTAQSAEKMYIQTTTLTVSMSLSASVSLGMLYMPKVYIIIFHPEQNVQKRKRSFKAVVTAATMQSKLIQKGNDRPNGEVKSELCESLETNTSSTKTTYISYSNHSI

Row | SMILES | z-score
1 | COc1ccc(C(=O)N2c3cc4c(cc3C(C)=CC2(C)C)OCO4)cc1 | 0.251
2 | CC1=[N+](C)N(c2ccccc2)C(=O)C1N=Cc1c(Cl)cccc1Cl (stereo unspecified) | 0.135
3 | CCCCc1c(O)nc2n(c1=O)CCS2 | -0.493
4 | Cc1ccc(C(=O)Nc2c(-c3cccs3)nc3cc(C)ccn23)cc1 | -0.519
5 | COc1ccc(CN2C(=O)CC(Cc3ccc(C)cc3)C2=O)cc1OC (stereo unspecified) | 0.404
6 | COC(=O)c1sccc1NC(=O)c1cc(-c2ccc(C)cc2C)nc2ccccc12 | -0.164
7 | Cn1nc(OCC(N)=O)ccc1=O | 0.11
8 | COCC(C)NCc1cccc([N+](=O)[O-])c1 (stereo unspecified) | -0.122
9 | CCOC(=O)c1nn(-c2ccc(Br)cc2)cc1C(=O)c1cccc2ccccc12 | 0.0669
10 | CCN(CCO)Cc1csc2ccc(C(C)(C)C)cc12 | 0.147
11 | CCCN1C(=O)/C(=C/c2cc(C)n(C)c2C)SC1=Nc1ccc(OC)cc1 | -0.188
12 | COc1ccccc1N1CCN(/N=C\c2ccc(C)o2)CC1 | 0.0843
13 | CCNC(=S)NNC(=O)c1cc(CC(C)C)nc2ccccc12 | -0.186
14 | O=C(NNc1ccccc1Br)C(=O)n1ccc2ccccc21 | 2.23
15 | CCn1c(-c2c[nH]c3ccccc23)n[nH]c1=S | -0.0356
16 | Cc1ccc2cc(CN(CC3CCCO3)C(=O)C(C)C)c(=O)[nH]c2c1 (stereo unspecified) | -0.391
17 | CC12COC3(C(N)=O)CC1CCC32C (stereo unspecified) | -0.0772
18 | O=C(CCCn1c(=S)[nH]c2ccccc2c1=O)N1CCCCC1 | 1.44
19 | C=C(C)Cn1c(=S)[nH]c2ccccc2c1=O | -0.0946

Row | SMILES | z-score
20 | Cn1c(NCc2ccco2)nc2ccccc21 | 0.035
21 | Cc1ccc(S(=O)(=O)N2CCN(c3nc(C)nc4sc(C)c(C)c34)CC2)cc1 | -0.309
22 | CCOC(=O)c1c(NC(=S)Nc2ccccc2)sc2c1CCN(C)C2 | -0.385
23 | O=C(Cn1c(COc2ccccc2)nc2ccccc21)Nc1cccc(Cl)c1 | -0.15
24 | C=CCOC(=O)C1=C(C)Nc2nnnn2C1c1ccc(OC)cc1OC (stereo unspecified) | 0.184
25 | CCCOC(=O)c1c(NC(=O)/C=C/c2cnn(C)c2C)sc(C(=O)OC)c1C | -0.156
26 | Cc1cc(C)n2nc(SCC(=O)N/N=C/c3ccc(F)cc3)nc2n1 | -0.137
27 | CC1=C(C(=O)OC2CCCCCCC2)C(c2cc3c(cc2Br)OCO3)CC(=O)N1 (stereo unspecified) | -0.174
28 | COc1ccc(C)cc1NC(=O)Cn1cnc2sc(C)c(S(=O)(=O)N3CCOCC3)c2c1=O | 0.412
29 | CCOc1ccc(CSCCNC(=S)Nc2ccccc2)cc1 | 0.112
30 | CCc1cccc(OCCCCNCCOC)c1 | 0.165
31 | CC(=O)Nc1ccc(NC(=O)CN2CCN(c3cccc(C(F)(F)F)c3)CC2)cc1 | -0.345
32 | COc1ccc(CC(=O)OCC(=O)Nc2ccc(Cl)cn2)cc1 | -0.453
33 | Cc1cc(C)nc(N2CCCC(C(=O)Nc3nnc(C)s3)C2)n1 (stereo unspecified) | 0.518
34 | Cc1cc(NCCCN2CCOCC2)n2nc(C)c(-c3ccc(F)cc3)c2n1 | 0.303
35 | N#CCCn1cc(/C=N/O)c(-c2ccc(Cl)cc2)n1 | 0.457
36 | COc1cc(/C=N/NC(=O)CCc2c(C)n[nH]c2C)cc(OC)c1OC | -0.524
37 | O=C(O)CSCc1ccc(Cl)cc1 | -0.193
38 | Cc1ccc(NCc2nnc(SCC(N)=O)n2CC2CCCO2)c(C)c1 (stereo unspecified) | -0.972

Row | SMILES | z-score
39 | Cc1ccc(-c2nc(CS(=O)CC(=O)NCCN(CC(C)C)CC(C)C)c(C)o2)cc1 (stereo unspecified) | 1.56
40 | COc1cccc(-n2c(SCc3cc(=O)oc4cc(O)c(O)cc34)nc3ccccc3c2=O)c1 | -1.01
41 | CC(C)[C@H](NC(=O)NCc1ccc(Cl)cc1)C(=O)O | -0.146
42 | C=CCn1c(=NC(=O)c2ccccc2[N+](=O)[O-])sc2cc(S(C)(=O)=O)ccc21 | -0.065
43 | Cc1c(NC(=O)CSc2nnnn2C)c(=O)n(-c2ccccc2)n1C | -0.861
44 | CC(C)C(=O)Nc1cccc(C(=O)NCCc2ccc(S(N)(=O)=O)cc2)c1 | 0.316
45 | CCCCCC(=O)NNC(=O)c1ccc(-c2ccccc2)cc1 | -0.355
46 | Nn1c(Cc2ccccc2F)nnc1SCC(=O)N1CC(=O)Nc2ccccc21 | -0.206
47 | Clc1ccc(/C=N/NC(=Nc2ccccc2)c2ccccn2)c(Cl)c1 | -0.165
48 | CCCCN(C(=O)CSc1nnc(-c2ccccc2)n1C)c1c(N)n(Cc2ccccc2)c(=O)[nH]c1=O | -0.219
49 | CCOC(=O)Cn1nnnc1CN(Cc1cccs1)Cc1cc2cc(C)cc(C)c2[nH]c1=O | -0.864
50 | COC(=O)c1sc2ccccc2c1NC(=O)c1coc2ccccc2c1=O | 0.603
51 | S=C(NCc1ccco1)Nc1ccc(N2CCOCC2)cc1 | -0.00184
52 | CC(=O)Nc1nnc(CCN2CCCCC2)s1 | -0.424
53 | CC(=O)c1ccc(OC(C)C)c(CSc2nc(O)cc(=O)[nH]2)c1 | -0.0512
54 | CCc1ccc(Cn2nnc(C(=O)NCc3ccccc3OC)c2N)cc1 | 0.172
55 | CC(=O)Nc1ccc(Nc2ccc(S(=O)(=O)C(F)(F)F)cc2[N+](=O)[O-])cc1 | 0.249
56 | CCOc1cc(C)c(Cl)cc1S(=O)(=O)N(CC)CC | 0.127
